Measured values taken from US11578102B2, “LAG3 binding peptides” (Leidos, Inc., priority 2020, dated 2023).
For at least one compound, name, drawing or mass did not settle the structure. Residues, ends and D or L forms follow the SMILES beside them.

Tests used:
LAG3:MHC [1] = assay: LAG3:MHC TR-FRET Screen (Cisbio) | % Inhibition at 0.39 µM
LAG3:MHC [2] = assay: LAG3:MHC TR-FRET Screen (Cisbio) | % Inhibition at 100 µM
LAG3:FGL1 [3] = assay: LAG3:FGL1 TR-FRET Screen (BPS) | % Inhibition at 100 µM
LAG3:FGL1 [4] = assay: LAG3:FGL1 TR-FRET Screen (BPS) | % Inhibition at 33 µM
LAG3:FGL1 [5] = assay: LAG3:FGL1 TR-FRET Screen (BPS) | % Inhibition at 11 µM
LAG3:MHC [6] = assay: LAG3:MHC TR-FRET Screen (Cisbio) | % Inhibition at 6.25 µM

CC[C@H](C)[C@H](NC(=O)[C@H](C)NC(=O)[C@@H](NC(=O)CNC(=O)CN)C(C)C)C(=O)N[C@@H](Cc1ccccc1)C(=O)N[C@@H](CC(C)C)C(=O)N[C@@H](C)C(=O)N[C@@H](CC(C)C)C(=O)N[C@@H](Cc1ccccc1)C(=O)NCC(=O)NCC(=O)N[C@@H](CCSC)C(=O)N[C@H](C(=O)N[C@@H](CO)C(=O)N[C@@H](CO)C(=O)N[C@@H](Cc1c[nH]c2ccccc12)C(=O)N[C@@H](CCC(=O)O)C(=O)N[C@@H](Cc1c[nH]c2ccccc12)C(=O)N[C@@H](CC(=O)O)C(=O)O)C(C)C [compound 141] (H-GGVAIFLALFGGMVSSWEWD-OH)
LAG3:MHC TR-FRET Screen (Cisbio) | % Inhibition at 0.39 µM (LAG3:MHC [1]): 33%
LAG3:MHC TR-FRET Screen (Cisbio) | % Inhibition at 100 µM (LAG3:MHC [2]): 63%
LAG3:FGL1 TR-FRET Screen (BPS) | % Inhibition at 100 µM (LAG3:FGL1 [3]): 80%
LAG3:FGL1 TR-FRET Screen (BPS) | % Inhibition at 33 µM (LAG3:FGL1 [4]): 25%
LAG3:FGL1 TR-FRET Screen (BPS) | % Inhibition at 11 µM (LAG3:FGL1 [5]): 7%
LAG3:MHC TR-FRET Screen (Cisbio) | % Inhibition at 6.25 µM (LAG3:MHC [6]): 44%
